Results reported in patent publication US4065570A (priority 1975, dated 1977).
Where “and” joins values, the source holds several entries; their conditions need not be identical. Equal entries are not always repeated. Where two headings read alike, the source gives them in different places.

Tests used:
Polio I = assay: organism not typed; type: cell-based; conditions: Vero

COc1ccc(C=C2C(=O)N(C(C)=O)C(=O)N2C(C)=O)cc1OC [Example 32, N,N-diacetylated 5-(3',4'-dimethoxybenzal) hydantoin]
inhibition at 1 µg/mL (Polio I; 56.2 TCID50, 1 μg/ml): 86%
inhibition at 5 µg/mL (Polio I; 56.2 TCID50, 5 μg/ml): 100%
inhibition at 10 µg/mL (Polio I; 56.2 TCID50, 10 μg/ml): 100%
inhibition at 50 µg/mL (Polio I; 56.2 TCID50, 50 μg/ml): 100%

Acetylated 5-(2',4',5'-trimethoxybenzal) hydantoin [Example 22]
% Inhibition (Coxsackie B3; 0.07 μg/ml): 37% and 43%
% Inhibition (Coxsackie B3; 0.1 μg/ml): 50%
% Inhibition (Coxsackie B3; 0.3 μg/ml): 75% and 90%
% Inhibition (Coxsackie B3; 0.7 μg/ml): 88% and 97%
% Inhibition (Coxsackie B3; 1 μg/ml): 90% and 100%

Acetylated 5-(3',4',5'-trimethoxybenzal) hydantoin [Example 23]
% Inhibition (Coxsackie B3; 1 μg/ml): 68% and 88%
% Inhibition (Coxsackie B3; 3.3 μg/ml): 88% and 100%
% Inhibition (Coxsackie B3; 6.7 μg/ml): 93% and 100%
% Inhibition (Coxsackie B3; 10 μg/ml): 97% and 100%
% Inhibition (Polio I; 17.8 TCID50, 0.1 μg/ml): 21%
% Inhibition (Polio I; 17.8 TCID50, 0.3 μg/ml): 32%
% Inhibition (Polio I; 17.8 TCID50, 0.7 μg/ml): 42%
% Inhibition (Polio I; 17.8 TCID50, 1 μg/ml): 56%
% Inhibition (Polio I; 17.8 TCID50, 3.3 μg/ml): 60%
% Inhibition (Polio I; 17.8 TCID50, 6.7 μg/ml): 95%
% Inhibition (Polio I; 17.8 TCID50, 10 μg/ml): 100%

Acetylated 5-(3',4',-Dimethoxybenzal) hydantoin [Example 14]
% Inhibition (Coxsackie B3; 0.5 μg/ml): 88%
% Inhibition (Coxsackie B3; 1 μg/ml): 97%
% Inhibition (Coxsackie B3; 5 μg/ml): 100%
% Inhibition (Coxsackie B3; 10 μg/ml): 100%

Acetylated 5-(3',4'-dimethoxybenzal) hydantoin
% Inhibition (Coxsackie B3; 0.01 μg/ml): 20%
% Inhibition (Coxsackie B3; 0.05 μg/ml): 50%
% Inhibition (Coxsackie B3; 0.1 μg/ml): 75%
% Inhibition (Coxsackie B3; 0.5 μg/ml): 95%
% Inhibition (Coxsackie B3; 1 μg/ml): 100%

Acetylated 5-(3',5'-dimethoxybenzal) hydantoin [Example 21]
% Inhibition (Coxsackie B3; 0.5 μg/ml): 25% and 21%
% Inhibition (Coxsackie B3; 1 μg/ml): 50% and 44%
% Inhibition (Coxsackie B3; 5 μg/ml): 100% and 99%
% Inhibition (Coxsackie B3; 10 μg/ml): 100%

Acetylated 5-(3'-methoxy-4'-acetoxybenzal) hydantoin [Example 15]
% Inhibition (Coxsackie B3; 1 μg/ml): 4%
% Inhibition (Coxsackie B3; 5 μg/ml): 60%
% Inhibition (Coxsackie B3; 10 μg/ml): 80%
% Inhibition (Polio I; 56.2 TCID50, 0.1 μg/ml): 7%
% Inhibition (Polio I; 56.2 TCID50, 0.5 μg/ml): 19%
% Inhibition (Polio I; 56.2 TCID50, 1 μg/ml): 12%
% Inhibition (Polio I; 56.2 TCID50, 5 μg/ml): 100%
% Inhibition (Polio I; 56.2 TCID50, 10 μg/ml): 100%

Acetylated 5-benzalhydantoin [Example 16]
% Inhibition (Coxsackie B3; 1 μg/ml): 0%
% Inhibition (Coxsackie B3; 5 μg/ml): 0%
% Inhibition (Coxsackie B3; 10 μg/ml): 25%
% Inhibition (Polio I; 56.2 TCID50, 1 μg/ml): 0%
% Inhibition (Polio I; 56.2 TCID50, 5 μg/ml): 0%
% Inhibition (Polio I; 56.2 TCID50, 10 μg/ml): 19%

N-monoacetylated 5-(3',4'-dimethoxybenzal) hydantoin [Example 31]
% Inhibition (Coxsackie B3; 1 μg/ml): 0%
% Inhibition (Coxsackie B3; 5 μg/ml): 0%
